Test results as given in the supplement of paper PMC8728848.
This is one part of the list.

Assays:
Experiment in all cases: glycan array binding signal (z-score within array); higher = stronger binding
Settings in all cases: glycan notation: IUPAC condensed, linker removed
[1] = target: Gal(b1-3)[Fuc(a1-4)]GlcNAc
Outline: (§1)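 Arrays were curated from the Consortium for Functional Glycomics database, 3228 in total, and kept only where the protein sequence was available. Binding is expressed as a within-array Z-score. This score was averaged across arrays of the same protein sequence at different concentrations or buffers and across linkers, and negative values can be read as non-binding.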

[2] = target: Gal(b1-3)[Fuc(a1-4)]GlcNAc(b1-2)Man(a1-3)[Gal(b1-3)[Fuc(a1-4)]GlcNAc(b1-2)Man(a1-6)]Man(b1-4)GlcNAc(b1-4)GlcNAc
Outline: as §1

[3] = target: Gal(b1-3)[Fuc(a1-4)]GlcNAc(b1-2)Man(a1-3)[Gal(b1-3)[Fuc(a1-4)]GlcNAc(b1-2)Man(a1-6)]Man(b1-4)GlcNAc(b1-4)[Fuc(a1-6)]GlcNAc
Outline: as §1

[4] = target: Gal(b1-3)[Fuc(a1-4)]GlcNAc(b1-3)Gal(b1-3)[Fuc(a1-4)]GlcNAc
Outline: as §1

[5] = target: Gal(b1-3)[Fuc(a1-4)]GlcNAc(b1-3)Gal(b1-4)GlcNAc
Outline: as §1

[6] = target: Gal(b1-3)[Fuc(a1-4)]GlcNAc(b1-3)Gal(b1-4)[Fuc(a1-3)]GlcNAc
Outline: as §1

[7] = target: Gal(b1-3)[GlcNAc(b1-6)]GalNAc
Outline: as §1

[8] = target: Gal(b1-3)[Neu5Ac(a2-6)]GalNAc
Outline: as §1

[9] = target: Gal(b1-3)[Neu5Ac(a2-6)]GlcNAc(b1-6)Gal(b1-4)Glc
Outline: as §1

[10] = target: Gal(b1-3)[Neu5Ac(b2-6)]GalNAc
Outline: as §1

[11] = target: Gal(b1-4)GalNAc(a1-3)[Fuc(a1-2)]Gal(b1-4)GlcNAc
Outline: as §1

[12] = target: Gal(b1-4)GalNAc(b1-3)[Fuc(a1-2)]Gal(b1-4)GlcNAc
Outline: as §1

Gal(b1-4)Glc = target: Gal(b1-4)Glc
Outline: as §1

Gal(b1-4)Glc6S = target: Gal(b1-4)Glc6S
Outline: as §1

Gal(b1-4)GlcNAc = target: Gal(b1-4)GlcNAc
Outline: as §1

[13] = target: Gal(b1-4)GlcNAc(a1-6)Gal(b1-4)GlcNAc
Outline: as §1

[14] = target: Gal(b1-4)GlcNAc(b1-2)Man(a1-3)Man(b1-4)GlcNAc(b1-4)GlcNAc
Outline: as §1

[15] = target: Gal(b1-4)GlcNAc(b1-2)Man(a1-3)[Gal(b1-4)GlcNAc(b1-2)Man(a1-6)]Man(b1-4)GlcNAc(b1-4)GlcNAc
Outline: as §1

[16] = target: Gal(b1-4)GlcNAc(b1-2)Man(a1-3)[Gal(b1-4)GlcNAc(b1-2)Man(a1-6)]Man(b1-4)GlcNAc(b1-4)[Fuc(a1-6)]GlcNAc
Outline: as §1

[17] = target: Gal(b1-4)GlcNAc(b1-2)Man(a1-3)[Man(a1-6)]Man(b1-4)GlcNAc(b1-4)GlcNAc
Outline: as §1

[18] = target: Gal(b1-4)GlcNAc(b1-2)Man(a1-6)Man(b1-4)GlcNAc(b1-4)GlcNAc
Outline: as §1

[19] = target: Gal(b1-4)GlcNAc(b1-2)Man(a1-6)[Man(a1-3)]Man(b1-4)GlcNAc(b1-4)GlcNAc
Outline: as §1

[20] = target: Gal(b1-4)GlcNAc(b1-2)[Gal(b1-4)GlcNAc(b1-4)]Man(a1-3)[Gal(b1-4)GlcNAc(b1-2)Man(a1-6)]Man(b1-4)GlcNAc(b1-4)GlcNAc
Outline: as §1

[21] = target: Gal(b1-4)GlcNAc(b1-3)Gal(b1-3)GlcNAc
Outline: as §1

[22] = target: Gal(b1-4)GlcNAc(b1-3)Gal(b1-4)Glc
Outline: as §1

[23] = target: Gal(b1-4)GlcNAc(b1-3)Gal(b1-4)GlcNAc
Outline: as §1

[24] = target: Gal(b1-4)GlcNAc(b1-3)Gal(b1-4)GlcNAc(b1-3)Gal(b1-4)GlcNAc
Outline: as §1

[25] = target: Gal(b1-4)GlcNAc(b1-3)Gal(b1-4)[Fuc(a1-3)]GlcNAc(b1-3)Gal(b1-4)[Fuc(a1-3)]GlcNAc
Outline: as §1

[26] = target: Gal(b1-4)GlcNAc(b1-3)GalNAc
Outline: as §1

[27] = target: Gal(b1-4)GlcNAc(b1-3)[Gal(b1-4)GlcNAc(b1-6)]Gal(b1-4)GlcNAc
Outline: as §1

B1: GALT1 115 D492A (Arabidopsis thaliana), Q8L7F9 (protein)
chain: DPMRGSHHHHHHGMASMTGGQQMGRDLYDDDDKSRLQKPYITAAASVVVTPNTTLPMEWLRITLPDFMKEARNTQEAISGDDIAVVSGLFVEQNVSKEEREPLLTWNRLESLVDNAQSLVNGVDAIKEAGIVWESLVSAVEAKKLVDVNENQTRKGKEELCPQFLSKMNATEADGSSLKLQIPCGLTQGSSITVIGIPDGLVGSFRIDLTGQPLPGEPDPPIIVHYNVRLLGDKSTEDPVIVQNSWTASQDWGAEERCPKFDPDMNKKVDDLDECNKMVGGEINRTSSTSLQSNTSRGVPVAREASKHEKYFPFKQGFLSVATLRVGTEGMQMTVDGKHITSFAFRDTLEPWLVSEIRITGDFRLISILASGLPTSEESEHVVDLEALKSPTLSPLRPLDLVIGVFSTANNFKRRMAVRRTWMQYDDVRSGRVAVRFFVGLHKSPLVNLELWNEARTYGDVQLMPFVDYYSLISWKTLAICIFGTEVDSAKFIMKTDDAAFVRVDEVLLSLSMTNNTRGLIYGLINSDSQPIRNPDSKWYISYEEWPEEKYPPWAHGPGYIVSRDIAESVGKLFKEGNLKMFKLEDVAMGIWIAELTKHGLEPHYENDGRIISDGCKDGYVVAHYQSPAEMTCLWRKYQETKRSLCCREW
- glycan array binding signal (z-score) [1]: -0.405
- glycan array binding signal (z-score) [2]: 0.286
- glycan array binding signal (z-score) [3]: -0.152
- glycan array binding signal (z-score) [4]: -0.081
- glycan array binding signal (z-score) [5]: -0.205
- glycan array binding signal (z-score) [6]: -0.353
- glycan array binding signal (z-score) [7]: -0.268
- glycan array binding signal (z-score) [8]: -0.128
- glycan array binding signal (z-score) [9]: -0.069
- glycan array binding signal (z-score) [10]: -0.062
- glycan array binding signal (z-score) [11]: -0.161
- glycan array binding signal (z-score) [12]: -0.47
- glycan array binding signal (z-score) (Gal(b1-4)Glc): -0.124
- glycan array binding signal (z-score) (Gal(b1-4)Glc6S): -0.427
- glycan array binding signal (z-score) (Gal(b1-4)GlcNAc): -0.364
- glycan array binding signal (z-score) [13]: -0.068
- glycan array binding signal (z-score) [14]: -0.019
- glycan array binding signal (z-score) [15]: -0.144
- glycan array binding signal (z-score) [16]: 0.529
- glycan array binding signal (z-score) [17]: 0.037
- glycan array binding signal (z-score) [18]: -0.277
- glycan array binding signal (z-score) [19]: -0.253
- glycan array binding signal (z-score) [20]: -0.255
- glycan array binding signal (z-score) [21]: -0.291
- glycan array binding signal (z-score) [22]: 0.408
- glycan array binding signal (z-score) [23]: 0.241
- glycan array binding signal (z-score) [24]: -0.243
- glycan array binding signal (z-score) [25]: -0.056
- glycan array binding signal (z-score) [26]: -0.374
- glycan array binding signal (z-score) [27]: -0.171
